According to US5721210A, “Cyclic cell adhesion modulation compounds” (priority 1995, dated 1998):
Not every detail of the peptide structures is certain; ends, links or a residue may be inferred. Bridge positions count the residues as written; N and C are the ends. Square brackets hold non-standard residues; d marks the D form. Peptide text beside a SMILES is read from it. * marks the point of attachment. Acetyl(1-adamantyl) = O=C(CC12CC3CC(CC(C3)C1)C2)*; Acetyl(9-fluorenyl) = O=C(CC1c2ccccc2-c2ccccc21)*; Adamantane1carbonyl = O=C(C12CC3CC(CC(C3)C1)C2)*; Acetyl(1-naphthyl) = O=C(Cc1cccc2ccccc12)*; Fmoc = O=C(OCC1c2ccccc2-c2ccccc21)*; Hyp = O=C(O)[C@@H]1C[C@@H](O)CN1; hArg = N=C(N)NCCCC[C@H](N)C(=O)O; hCys = N[C@@H](CCS)C(=O)O; Thz = O=C(O)[C@@H]1CSCN1

Test system: Jurkat T-cells adhering to IL-1 stimulated human umbilical vein endothelial cell monolayers
Test: Jurkat-endothelial cell adhesion assay (Cell Adhesion Inhibition Assay II)
Format: cell-based
Conditions: for 10 μM% (percentage inhibition at 10 μM): 10 μM peptide; for 10 μM% (percentage inhibition at 10 μM) / 200 μM% (percentage inhibition at 200 μM): Jurkat cells on IL-1 stimulated endothelial monolayers, 20 min at 37° C.; for 200 μM% (percentage inhibition at 200 μM): 200 μM peptide; for IC50: Jurkat-endothelial cell adhesion, peptides tested at 200, 40, 8, 1.6, 0.32, 0.064 μM
Experimental: The following assay established the activity of the present compound in inhibiting cell-cell adhesion in a representative in vitro system. This assay measures the adhesive interactions of T-cells to endothelial cell monolayers in the presence of a test compound. The test compound is added in increasing concentrations with T-cells and this is added to endothelial cell monolayers. The plates are incubated, washed and the percentage of attached cells is quantitated.
Human umbilical vein endothelial cells were purchased from Clonetics (San Diego, Calif.) at passage number 2. The cells were grown on 0.5% porcine skin gelatin pre-coated flasks (Sigma, St. Louis, Mo.) in EGM-UV media (Clonetics, San Diego, Calif.) supplemented with 10% fetal bovine serum. Cells were refed every 2-3 days reaching confluence by day 4 to 6. […] The endothelial cells were not used following passage 14-15.
The T-cell line Jurkat was obtained from American Type Tissue Culture Collection (Rockville, Md.). The cells were cultured in RPMI media containing 10% fetal calf serum. The cells were washed twice with Hank's Balanced Salt Solution (HBSS) and resuspended in Dulbecco's […] Eagle's Media (DMEM) containing 2.5 mg/ml Human Serum Albumin (HSA). The Jurkat cells (1×10^6 cells/ml) were stained with 10 μg/ml fluorescein diacetate (Sigma, St. Louis, Mo.) in HSSS containing 5% fetal calf serum. The cells were stained for 15 minutes in the dark at room temperature, washed 2 times, and resuspended in a DMEM-HSA solution.
Confluent endothelial monolayers grown in 96-well tissue culture plates were stimulated for 4 hours at 37° C. with 0.1 ng/ml (^~ 50 U/ml) recombinant IL-1 (Amgen, Thousand Oaks, Calif.). Following this incubation, the monolayers were washed twice with HBSS and 0.1 ml of DMEM-HSA solution was added. Jurkat cells (5×10^5 cells) were combined with appropriate concentrations of a peptide to be tested and 0.1 ml of the Jurkat-peptide mixture were added to the endothelial cell monolayers. Generally, 200 and 10 μM peptide concentrations were tested. […] The plates were placed on ice for 5 minutes to allow for Jurkat cell settling and then incubated at 37° C. for 20 minutes. Following this incubation, the monolayers were washed twice with PBS containing 1 mM calcium chloride and 1 mM magnesium chloride and the plates were read using a Pandex Fluorescence Concentration Analyzer (Baxter, Mundelein, Ill.). Fluorescence in each well was measured as arbitrary fluorescence units and percent adhesion in the absence of a peptide was adjusted to 100% and the percentage adhesion in the presence of the peptide was calculated. Monolayers were also fixed in 3% paraformaldehyde and evaluated microscopically to verify adhesion.

Row | SMILES | 10 μM% (percentage inhibition at 10 μM) | 200 μM% (percentage inhibition at 200 μM) | IC50
1 | N=C(N)NCCC[C@H](N)C(=O)N[C@H]1CSSC[C@@H](C(=O)O)NC(=O)[C@@H]2CSCN2C(=O)[C@H](CC(=O)O)NC1=O [Peptide 147, RC*D-(3-thioPro)C*] (H-RCD[Thz]C-OH; disulfide 2-5) | 57% | 15% | 41000 nM
2 | N=C(N)NCCC[C@H](NC(=O)CC12CC3CC(CC(C3)C1)C2)C(=O)N[C@H]1CSSC[C@@H](C(=O)O)NC(=O)[C@H](CC(N)=O)NC(=O)[C@H](CC(=O)O)NC1=O [Peptide 152, (Ada)-RC*DNC*] ({Acetyl(1-adamantyl)}-RCDNC-OH; disulfide 2-5) | 72% | 68% | –
3 | CC(C)C[C@@H]1NC(=O)[C@@H](N)CSSC[C@@H](C(=O)O)NC(=O)[C@@H]2CCCN2C(=O)[C@H](CO)NC(=O)[C@H](CCC(=O)O)NC(=O)CNC(=O)[C@H](CCCNC(=N)N)NC1=O [Peptide 141, C*LRGESPC*] (H-CLRGESPC-OH; disulfide 1-8) | 60% | 17% | –
4 | N=C(N)NCCC[C@H](NC(=O)OCC1c2ccccc2-c2ccccc21)C(=O)N[C@H]1CSSCC[C@@H](C(=O)O)NC(=O)[C@@H]2CSCN2C(=O)[C@H](CC(=O)O)NC1=O [Peptide 161, (FMOC)-RC*D-(3-thioPro)(HomoC*)] (Fmoc-RCD[Thz][hCys]-OH; disulfide 2-5) | 53% | 35% | –
5 | N=C(N)NCCC[C@H](NC(=O)OCC1c2ccccc2-c2ccccc21)C(=O)N[C@H]1CSSC[C@@H](C(=O)O)NC(=O)[C@@H]2CSCN2C(=O)[C@H](CCC(=O)O)NC1=O [Peptide 165, (FMOC)-RC*E-(3-thioPro)C*] (Fmoc-RCE[Thz]C-OH; disulfide 2-5) | 30% | 12% | 2000 nM
6 | N=C(N)NCCC[C@H](NC(=O)C12CC3CC(CC(C3)C1)C2)C(=O)N[C@H]1CSSC[C@@H](C(=O)O)NC(=O)[C@@H]2CCCN2C(=O)[C@H](CC(=O)O)NC1=O [Peptide 150, (Ada-CA)-RC*DPC*] (Adamantane1carbonyl-RCDPC-OH; disulfide 2-5) | 44% | 37% | 39000 nM
7 | N=C(N)NCCC[C@H](NC(=O)CC1c2ccccc2-c2ccccc21)C(=O)N[C@H]1CSSC[C@@H](C(=O)O)NC(=O)[C@@H]2CSCN2C(=O)[C@H](CC(=O)O)NC1=O [Peptide 163, (9-FA)-RC*D-(3-thioPro)C*] ({Acetyl(9-fluorenyl)}-RCD[Thz]C-OH; disulfide 2-5) | 16% | 12% | 700 nM
8 | N=C(N)NCCC[C@@H]1NC(=O)CNC(=O)[C@@H](NC(=O)CC23CC4CC(CC(C4)C2)C3)CSSC[C@@H](C(=O)O)NC(=O)[C@@H]2CCCN2C(=O)[C@H](CO)NC(=O)[C@H](CCC(=O)O)NC(=O)CNC1=O [Peptide 159, (Ada)-C*GRGESPC*] ({Acetyl(1-adamantyl)}-CGRGESPC-OH; disulfide 1-8) | 47% | 20% | –
9 | N=C(N)NCCC[C@@H]1NC(=O)CNC(=O)[C@@H](NC(=O)CC23CC4CC(CC(C4)C2)C3)CSSC[C@@H](C(=O)O)NC(=O)[C@@H]2CSCN2C(=O)[C@H](CO)NC(=O)[C@H](CCC(=O)O)NC(=O)CNC1=O [Peptide 157, (Ada)-C*GRGES-(3-thioPro)C*] ({Acetyl(1-adamantyl)}-CGRGES[Thz]C-OH; disulfide 1-8) | 30% | 21% | –
10 | N=C(N)NCCC[C@@H]1NC(=O)[C@@H](NC(=O)CC23CC4CC(CC(C4)C2)C3)CSSC[C@@H](C(=O)O)NC(=O)[C@@H]2CCCN2C(=O)[C@H](CO)NC(=O)[C@H](CC(=O)O)NC(=O)CNC1=O [Peptide 144, (Ada)-C*RGDSPC*] ({Acetyl(1-adamantyl)}-CRGDSPC-OH; disulfide 1-7) | 95% | 49% | –
11 | N=C(N)NCCC[C@H](NC(=O)OCC1c2ccccc2-c2ccccc21)C(=O)N[C@H]1CSSC[C@@H](C(=O)O)NC(=O)[C@@H]2C[C@@H](O)CN2C(=O)[C@H](CC(=O)O)NC1=O [Peptide 149, (FMOC)-RC*D(Hyp)C*] (Fmoc-RCD[Hyp]C-OH; disulfide 2-5) | 34% | 16% | 16000 nM
12 | N=C(N)NCCC[C@@H]1NC(=O)CNC(=O)[C@@H](NC(=O)C23CC4CC(CC(C4)C2)C3)CSSC[C@@H](C(=O)O)NC(=O)[C@@H]2CSCN2C(=O)[C@H](CO)NC(=O)[C@H](CCC(=O)O)NC(=O)CNC1=O [Peptide 158, (Ada-CA)-C*GRGES-(3-thioPro)C*] (Adamantane1carbonyl-CGRGES[Thz]C-OH; disulfide 1-8) | 57% | 14% | –
13 | N=C(N)NCCC[C@@H]1NC(=O)CNC(=O)[C@@H](NC(=O)CC23CC4CC(CC(C4)C2)C3)CSSC[C@@H](C(=O)O)NC(=O)[C@@H]2CSCN2C(=O)[C@H](CO)NC(=O)[C@H](CC(=O)O)NC(=O)CNC1=O [Peptide 153, (Ada)-C*GRGDS-(3-thioPro)C*] ({Acetyl(1-adamantyl)}-CGRGDS[Thz]C-OH; disulfide 1-8) | 22% | 14% | 1000 nM
14 | N=C(N)NCCC[C@H](NC(=O)OCC1c2ccccc2-c2ccccc21)C(=O)N[C@H]1CSSC[C@@H](C(=O)O)NC(=O)[C@@H]2CSCN2C(=O)[C@H](CC(=O)O)NC1=O [Peptide 146, (FMOC)-RC*D-(3-thioPro)C*] (Fmoc-RCD[Thz]C-OH; disulfide 2-5) | 24% | 22% | 3000 nM
15 | N=C(N)NCCC[C@H](NC(=O)OCC1c2ccccc2-c2ccccc21)C(=O)N[C@H]1CSSC[C@@H](C(=O)O)NC(=O)[C@@H]2CCCN2C(=O)[C@H](CO)NC(=O)[C@H](CC(=O)O)NC1=O [Peptide 145, (FMOC)-RC*DSPC*] (Fmoc-RCDSPC-OH; disulfide 2-6) | 81% | 34% | –
16 | CC(C)[C@@H]1NC(=O)[C@@H](N)CSSC[C@@H](C(=O)O)NC(=O)[C@@H]2CCCN2C(=O)[C@H](CO)NC(=O)[C@H](CC(=O)O)NC(=O)CNC(=O)[C@H](CCCNC(=N)N)NC1=O [Peptide 143, C*VRGDSPC*] (H-CVRGDSPC-OH; disulfide 1-8) | 64% | 16% | –
17 | N=C(N)NCCC[C@H](NC(=O)OCC1c2ccccc2-c2ccccc21)C(=O)N[C@H]1CSSC[C@@H](C(=O)O)NC(=O)[C@H](CC(N)=O)NC(=O)[C@H](CC(=O)O)NC1=O [Peptide 155, (FMOC)-RC*DNC*] (Fmoc-RCDNC-OH; disulfide 2-5) | 96% | 20% | –
18 | N=C(N)NCCC[C@H](NC(=O)CC12CC3CC(CC(C3)C1)C2)C(=O)N[C@H]1CSSC[C@@H](C(=O)O)NC(=O)[C@H](Cc2ccccc2)NC(=O)[C@H](CC(=O)O)NC1=O [Peptide 151, (Ada)-RC*DFC*] ({Acetyl(1-adamantyl)}-RCDFC-OH; disulfide 2-5) | 83% | 22% | –
19 | N=C(N)NCCC[C@H](NC(=O)Cc1cccc2ccccc12)C(=O)N[C@H]1CSSC[C@@H](C(=O)O)NC(=O)[C@@H]2CSCN2C(=O)[C@H](CC(=O)O)NC1=O [Peptide 162, (NaphAc)-RC*D-(3-thioPro)C*] ({Acetyl(1-naphthyl)}-RCD[Thz]C-OH; disulfide 2-5) | 52% | 37% | –
20 | N=C(N)NCCCC[C@H](NC(=O)CC12CC3CC(CC(C3)C1)C2)C(=O)N[C@H]1CSSC[C@@H](C(=O)O)NC(=O)[C@@H]2CSCN2C(=O)[C@H](CC(=O)O)NC1=O [Peptide 160, (Ada)-(HomoR)C*D-(3-thioPro)C*] ({Acetyl(1-adamantyl)}-[hArg]CD[Thz]C-OH; disulfide 2-5) | 40% | 13% | –
